Source: paper PMC12820563
The other results are listed elsewhere or left out. The list includes weakly bound sequences.

molecular target: T1, MBP-FoxP3dN (UniProt Q99JB6); assay: PD-seq (MBP pull-down with sequencing); conditions: 20 mM Tris-HCl pH 7.5, 100 mM NaCl, 1.5 mM MgCl2, 0.4 uM protein, 0.1 uM dsDNA library, 30 min, room temperature, amylose pull-down; high values mean tight binding; double strand, one strand shown
T1 sequence: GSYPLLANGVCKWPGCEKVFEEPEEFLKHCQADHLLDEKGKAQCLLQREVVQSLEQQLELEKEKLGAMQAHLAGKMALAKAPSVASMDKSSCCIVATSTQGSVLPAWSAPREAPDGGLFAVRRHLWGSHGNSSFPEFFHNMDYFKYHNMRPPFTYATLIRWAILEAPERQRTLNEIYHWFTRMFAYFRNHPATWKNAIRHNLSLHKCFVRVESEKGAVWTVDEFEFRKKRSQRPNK

Sequence | binding signal (RPM ratio (pull-down/input))
GATGATTGTTCTCCCAGCTGATGAATTGACATGTTCGAGTAAACAAATTTTCCTAATCTTTCTGTTCAAGCGCCATCTAC | 0.701
GATGATTGTTCTCCCAGCTGATGAATTAAGGGAGTCGAGTAAACAAATTTTCCTAATCTTTCTGTTCAAGCGCCATCTAC | 0.249
GATGATTGTTCTCCCAGCTGATGAATTGAACACTTCGAGTAAACAAATTTTCCTAATCTTTCTGTTCAAGCGCCATCTAC | 0.455
GATGATTGTTCTCCCAGCTGATGAATTTTAGTTATCGAGTAAACAAATTTTCCTAATCTTTCTGTTCAAGCGCCATCTAC | 1.33
GATGATTGTTCTCCCAGCTGATGAATTGAAGGACTCGAGTAAACAAATTTTCCTAATCTTTCTGTTCAAGCGCCATCTAC | 0.282
GATGATTGTTCTCCCAGCTGATGAATTATTCCGATCGAGTAAACAAATTTTCCTAATCTTTCTGTTCAAGCGCCATCTAC | 0.214
GATGATTGTTCTCCCAGCTGATGAATTTAGAGTCTCGAGTAAACAAATTTTCCTAATCTTTCTGTTCAAGCGCCATCTAC | 1.35
GATGATTGTTCTCCCAGCTGATGAATTTCAGAGCTCGAGTAAACAAATTTTCCTAATCTTTCTGTTCAAGCGCCATCTAC | 0.211
GATGATTGTTCTCCCAGCTGATGAATTACTATCGTCGAGTAAACAAATTTTCCTAATCTTTCTGTTCAAGCGCCATCTAC | 0.509
GATGATTGTTCTCCCAGCTGATGAATTTGCAGAGTCGAGTAAACAAATTTTCCTAATCTTTCTGTTCAAGCGCCATCTAC | 0.324
GATGATTGTTCTCCCAGCTGATGAATTTGCTGGATCGAGTAAACAAATTTTCCTAATCTTTCTGTTCAAGCGCCATCTAC | 0.64
GATGATTGTTCTCCCAGCTGATGAATTCCGACGATCGAGTAAACAAATTTTCCTAATCTTTCTGTTCAAGCGCCATCTAC | 0.285
GATGATTGTTCTCCCAGCTGATGAATTTTTATCTTCGAGTAAACAAATTTTCCTAATCTTTCTGTTCAAGCGCCATCTAC | 0.326
GATGATTGTTCTCCCAGCTGATGAATTTGCTGGCTCGAGTAAACAAATTTTCCTAATCTTTCTGTTCAAGCGCCATCTAC | 3
GATGATTGTTCTCCCAGCTGATGAATTAGCGTAATCGAGTAAACAAATTTTCCTAATCTTTCTGTTCAAGCGCCATCTAC | 0.828
GATGATTGTTCTCCCAGCTGATGAATTTAACTTTTCGAGTAAACAAATTTTCCTAATCTTTCTGTTCAAGCGCCATCTAC | 0.292

Sequence | binding signal (RPM ratio (pull-down/input))
GATGATTGTTCTCCCAGCTGATGAATTCTCCGTCTCGAGTAAACAAATTTTCCTAATCTTTCTGTTCAAGCGCCATCTAC | 0.248
GATGATTGTTCTCCCAGCTGATGAATTCGCTCAATCGAGTAAACAAATTTTCCTAATCTTTCTGTTCAAGCGCCATCTAC | 0.255
GATGATTGTTCTCCCAGCTGATGAATTGGTCTCATCGAGTAAACAAATTTTCCTAATCTTTCTGTTCAAGCGCCATCTAC | 0.414
GATGATTGTTCTCCCAGCTGATGAATTACCTACGTCGAGTAAACAAATTTTCCTAATCTTTCTGTTCAAGCGCCATCTAC | 0.303
GATGATTGTTCTCCCAGCTGATGAATTAAAACGATCGAGTAAACAAATTTTCCTAATCTTTCTGTTCAAGCGCCATCTAC | 0.283
GATGATTGTTCTCCCAGCTGATGAATTACTCTTGTCGAGTAAACAAATTTTCCTAATCTTTCTGTTCAAGCGCCATCTAC | 0.317
GATGATTGTTCTCCCAGCTGATGAATTTCATCATTCGAGTAAACAAATTTTCCTAATCTTTCTGTTCAAGCGCCATCTAC | 0.871
GATGATTGTTCTCCCAGCTGATGAATTGCAAAGGTCGAGTAAACAAATTTTCCTAATCTTTCTGTTCAAGCGCCATCTAC | 0.459
GATGATTGTTCTCCCAGCTGATGAATTCCCTGTCTCGAGTAAACAAATTTTCCTAATCTTTCTGTTCAAGCGCCATCTAC | 0.253
GATGATTGTTCTCCCAGCTGATGAATTGGTCTTATCGAGTAAACAAATTTTCCTAATCTTTCTGTTCAAGCGCCATCTAC | 0.456
GATGATTGTTCTCCCAGCTGATGAATTGTCGCCCTCGAGTAAACAAATTTTCCTAATCTTTCTGTTCAAGCGCCATCTAC | 0.683
GATGATTGTTCTCCCAGCTGATGAATTACCCTGGTCGAGTAAACAAATTTTCCTAATCTTTCTGTTCAAGCGCCATCTAC | 0.217
GATGATTGTTCTCCCAGCTGATGAATTATCCGTTTCGAGTAAACAAATTTTCCTAATCTTTCTGTTCAAGCGCCATCTAC | 0.339
GATGATTGTTCTCCCAGCTGATGAATTTTCGCATTCGAGTAAACAAATTTTCCTAATCTTTCTGTTCAAGCGCCATCTAC | 6.27
GATGATTGTTCTCCCAGCTGATGAATTGTCTAGTTCGAGTAAACAAATTTTCCTAATCTTTCTGTTCAAGCGCCATCTAC | 0.488
